# Out of some 370,000 compounds screened, about 1,100 (0.3%) were called active. The inconclusive results got no clear call from the source; some entries with a clear call stand among them for comparison. Calls follow the shape of the dose curve; as a rule, active = well fitted activation curve with a large enough effect; inconclusive = small, poorly fitted or top-dose-only effect; inactive = flat fitted curve, though single readings scatter. Potencies beside an inconclusive call are fits to weak or partial responses and may not hold up.
# Target: Relaxin receptor 1 (Homo sapiens) (UniProt Q9HBX9)
# Sequence of UniProt Q9HBX9 (Q9HBX9 whole entry, looked up): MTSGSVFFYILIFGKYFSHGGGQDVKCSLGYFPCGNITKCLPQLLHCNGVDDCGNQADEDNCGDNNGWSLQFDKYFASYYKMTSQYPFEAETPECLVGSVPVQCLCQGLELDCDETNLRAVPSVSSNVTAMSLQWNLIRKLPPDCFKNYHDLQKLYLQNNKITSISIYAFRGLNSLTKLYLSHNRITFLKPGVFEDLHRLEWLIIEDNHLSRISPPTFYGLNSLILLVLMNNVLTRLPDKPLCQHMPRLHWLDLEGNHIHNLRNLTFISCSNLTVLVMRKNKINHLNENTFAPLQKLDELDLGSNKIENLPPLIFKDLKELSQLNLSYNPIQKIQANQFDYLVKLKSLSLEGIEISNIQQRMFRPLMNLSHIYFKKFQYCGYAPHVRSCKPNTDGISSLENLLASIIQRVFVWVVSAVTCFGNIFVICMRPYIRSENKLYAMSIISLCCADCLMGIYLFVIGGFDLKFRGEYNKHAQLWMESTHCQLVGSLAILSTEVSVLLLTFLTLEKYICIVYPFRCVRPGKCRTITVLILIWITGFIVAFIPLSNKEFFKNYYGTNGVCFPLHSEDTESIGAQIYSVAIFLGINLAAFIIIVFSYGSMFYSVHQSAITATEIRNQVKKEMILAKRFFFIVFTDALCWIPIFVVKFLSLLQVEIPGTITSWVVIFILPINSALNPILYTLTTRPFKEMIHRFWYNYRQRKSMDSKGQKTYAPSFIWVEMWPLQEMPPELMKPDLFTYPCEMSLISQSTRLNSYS
# Experiment: qHTS Assay for Agonists of the Relaxin Receptor RXFP1; also: nearly all actives have a fitted effect of over 60% in size
# Conditions: HEK293T-RXFP1 cAMP TR-FRET, 30 min; series mostly up to 57.5 µM
# How it was run: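 HEK293 cells stably expressing RXFP1, treated 30 min at 37C with compounds plus PDE4 inhibitor Ro 20174; cAMP measured by HTRF TR-FRET. Normalized to buffer and 29 nM porcine relaxin; EC50 by Hill fit.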
# Potency is read from the fitted curve at half-maximal effect; tags tell the direction and shape of the fitted curve.
row,SMILES,Potency
1,Cc1ccc(NC(=O)c2oc3ccc(S(=O)(=O)N4CCCCCC4)cc3c2C)c(C)c1,"inconclusive: 28.2 µM [activator, single point]"
2,CCNc1nc(C)c2cc(Br)c(=O)n(CC)c2n1,"inconclusive: 28.2 µM [activator, partial curve]"
3,COc1cc(C2CC(c3c(C)cc(C)[nH]c3=O)=NN2c2ccccc2F)cc(OC)c1OC (configuration not stated),"inconclusive: 28.2 µM [activator, partial curve]"
4,COc1cccc(CNC(=O)CCCn2nc(C)c3sc4ccccc4c3c2=O)c1,"inconclusive: 28.2 µM [activator, single point]"
5,COCCCN1C(=O)C(=O)/C(=C(/O)c2ccc(OC(C)C)c(C)c2)C1c1ccncc1 (configuration not stated),"inconclusive: 39.8 µM [activator, single point]"
6,CSc1ccc(C(=O)Nc2ccc(-c3nc4ccccc4s3)c(O)c2)cc1,"inconclusive: 14.1 µM [activator, partial curve]"
7,CN(C)CCN(Cc1ccco1)C(=O)c1cc2c(Cl)nc3ccccc3c2s1,inactive
8,O=C(COc1ncnc2scc(-c3ccccc3)c12)NCCN1C(=O)CSC1=O,active: 11.2 µM
9,O=C(COC(=O)c1ccc(Br)o1)NCc1ccc(F)cc1,inactive
10,CCC(=O)Nc1cccc(NC(=O)CSc2nc3c(c(=O)n(C)c(=O)n3C)n2C)c1,"inconclusive: 15.8 µM [activator, partial curve]"
11,CCCn1c(=N)c(C(=O)NCc2cccnc2)cc2c(=O)n3ccccc3nc21,"inconclusive: 22.4 µM [activator, partial curve]"
12,CSc1sc(C(=O)O)c2c1C(=O)CCC2,"inconclusive: 17.8 µM [activator, partial curve]"
13,COc1cccc(CNC(=O)C2CCN(Cc3cc4ccccc4n3Cc3ccc(C)cc3)CC2)c1,inactive
14,Cc1csc2ncnc(NC3CCN(Cc4ccccc4)CC3)c12,"inconclusive: 22.4 µM [activator, partial curve]"
15,COC(=O)C(C)Sc1ccc2nnc(-c3ccccc3)n2n1 (configuration not stated),active: 25.1 µM
16,Cc1ccc(-c2cn3nc(N4CCCC(C(=O)NCc5ccc(F)cc5)C4)sc3n2)cc1 (configuration not stated),inactive
17,Cc1nc(N)ncc1Sc1ccc(Cl)cc1,"inconclusive: 39.8 µM [activator, single point]"
18,COc1cc(OC)cc(-c2nc(-c3cc4cc(C)ccc4nc3OC)no2)c1,"inconclusive: 22.4 µM [activator, single point]"
19,O=[N+]([O-])c1ccc(NC2CCN(Cc3ccccc3)CC2)c([N+](=O)[O-])c1,inactive
20,COc1ccc(-c2nc(CSCC(=O)N3CCN(c4ccccc4F)CC3)c(C)o2)cc1,inactive
21,COc1ccc(S(=O)(=O)N2CCCCC2)cc1NC(=O)c1cccs1,"inconclusive: 28.2 µM [activator, single point]"
22,Cc1cc(C2C(C#N)=C(N)SC(N)=C2C#N)c(C)s1,"inconclusive: 25.1 µM [activator, partial curve]"
23,S=C(Nc1ccccc1)Nc1nc2ccccc2n1CCOc1ccc(Br)cc1,inactive

row,SMILES,Potency
1,COc1ccc(-c2cn3c(C)c(C(=O)Nc4ccncc4)sc3n2)cc1,"inconclusive: 28.2 µM [activator, single point]"
2,CCOC(=O)c1cccc(NC(=O)CSc2ncc3c(n2)-c2ccc(Cl)cc2N(Cc2ccccc2)S3(=O)=O)c1,active: 31.6 µM
3,CC1=C(c2ccc(C(C)C)cc2)S(=O)(=O)N=C1N1CCC(C(=O)NCc2ccc(C)o2)CC1,"inconclusive: 39.8 µM [activator, single point]"
4,Cc1cc(C)c2c(NC(=O)c3ccccc3Cl)c(C(=O)NCc3ccc(Cl)cc3)sc2n1,"inconclusive: 39.8 µM [activator, single point]"
5,CC(C)CCNC(=O)c1cc(-c2cccnc2)nc2ccc(S(=O)(=O)N3CCC(C)CC3)cc12,"inconclusive: 39.8 µM [activator, single point]"
6,CCCc1nn2c(=O)cc(COC(=O)c3cccc(NC(=O)c4ccc(OCC)cc4)c3)nc2s1,inactive
7,Cc1ccc(NC(=O)/C(C#N)=C(\N)C(Cl)(Cl)Cl)nc1,"inconclusive: 31.6 µM [activator, partial curve]"
8,CCOc1ccccc1C(=O)N1CCc2cc(OC)c(OC)cc2C1COc1ccc(OC)cc1 (configuration not stated),"inconclusive: 39.8 µM [activator, single point]"
9,CN(C)c1ccc(C(C#N)c2ccccc2)nn1 (configuration not stated),inactive
10,Clc1ccc(OCc2nn3c(C4CCCCC4)nnc3s2)c(Cl)c1,"inconclusive: 39.8 µM [activator, single point]"
11,Cc1c(-c2cccc(NC(=O)Nc3ccc(Cl)cc3)c2)nc2ncccn12,inactive
12,COc1cccc(OCC(=O)NCCS(=O)(=O)N2CCN(c3ccccc3F)CC2)c1,inactive
13,COc1ccc2sc(N(Cc3cccnc3)C(=O)COc3ccccc3)nc2c1,inactive
14,Nc1ccc2nc(-c3ccc(-c4nc5ccc(N)cc5[nH]4)cc3)[nH]c2c1,"inconclusive: 25.1 µM [activator, partial curve]"
15,N#Cc1c(N2CCN(C(=O)c3ccccc3Cl)CC2)nc(-c2ccccc2)c2c1CCCC2,inactive
16,COc1ccc(CCNC(=O)c2ccc(Cn3c(=O)c4ccccc4n(Cc4cccc(C)c4)c3=O)cc2)cc1OC,"inconclusive: 25.1 µM [activator, single point]"
17,Cc1ccc2[nH]c(=O)c(CN(C(=O)c3cccc(Cl)c3)C(C)(C)C)cc2c1,"inconclusive: 39.8 µM [activator, single point]"
18,COc1ccc(C(=O)/C=C2/Sc3cc4c(cc3N2C)OCO4)cc1,"inconclusive: 6.31 µM [activator, single point]"
19,C=CCOc1ccc2c(OC)c3ccoc3nc2c1OC,inactive
20,COc1ccc(CNC(=O)c2cc(=O)[nH]c3ccc(S(=O)(=O)N4CCCC4)cc23)c(OC)c1,"inconclusive: 39.8 µM [activator, single point]"
21,Cc1ccccc1CNC(=O)c1oc2c(c1C)-c1[nH]ncc1CC2,inactive
22,Cn1c(=O)c2c(ncn2CC(O)CNc2cccc(Cl)c2)n(C)c1=O (configuration not stated),"inconclusive: 28.2 µM [activator, single point]"
23,O=C(Cn1c(=O)nc(-c2ccccc2)c2cc(Cl)ccc21)N1CCN(c2ccccc2F)CC1,inactive

row,SMILES,Potency
1,CCS(=O)(=O)c1nc(S(=O)(=O)c2ccc(Cl)cc2)c(N2CCN(CCO)CC2)s1,"inconclusive: 17.8 µM [activator, partial curve]"
2,Cc1cc(N2C(=O)C(O)=C(C(=O)c3ccc(C)o3)C2c2cccs2)no1 (configuration not stated),"inconclusive: 17.8 µM [activator, partial curve]"
3,Cn1c(=O)n(-c2cccc(Cl)c2)c(=O)c2sc3ccccc3c21,"inconclusive: 28.2 µM [activator, partial curve]"
4,COC(=O)c1cc(C)sc1NC(=O)C1C2C=CC(CC2)C1C(=O)O (configuration not stated),"inconclusive: 25.1 µM [activator, partial curve]"
5,COc1cc(NC(=O)COc2cc(C)cc3oc(=O)c(C)c(C)c23)cc(OC)c1OC,"inconclusive: 25.1 µM [activator, partial curve]"
6,COc1ccc(C(=O)NNC(=O)CSc2nc(C(C)C)nc3ccccc23)cc1,"inconclusive: 28.2 µM [activator, partial curve]"
7,CCc1nnc(NC(=O)CSc2nc3c(cc2C#N)CCCC3)s1,"inconclusive: 35.5 µM [activator, single point]"
8,CCC(C)OC(=O)/C(C#N)=C\c1ccc(-c2cccc(C(F)(F)F)c2)o1 (configuration not stated),"inconclusive: 28.2 µM [activator, single point]"
9,N#Cc1c(-c2cccs2)cc(C2CC2)nc1SCC(N)=O,"inconclusive: 39.8 µM [activator, single point]"
10,COc1ccccc1NC(=O)c1sc2ncn(Cc3cccc(C)c3)c(=O)c2c1C,"inconclusive: 39.8 µM [activator, single point]"
11,CCN(CC)S(=O)(=O)c1ccc(OC)c(NC(=O)COc2ccc3c(C)cc(=O)oc3c2)c1,"inconclusive: 7.94 µM [activator, full curve]"
12,CCc1c(C)nc2ccc(Br)cc2c1Cl,"inconclusive: 20 µM [activator, partial curve]"
13,NC(=O)Cn1cnc2nc3n(c2c1=O)CCC3,"inconclusive: 28.2 µM [activator, partial curve]"
14,Oc1cc(NCc2cccnc2)ccc1-c1nc2ccccc2o1,inactive
15,CCOc1ccc(NC(=O)Cn2cc(C(=O)c3ccccc3)c(=O)c3cc4c(cc32)OCCO4)cc1,"inconclusive: 35.5 µM [activator, single point]"
16,Cn1c(N)c(C(=O)COC(=O)C2CCCC2)c(=O)n(C)c1=O,"inconclusive: 31.6 µM [activator, partial curve]"
17,CCN(CC)C(=O)c1sc2nc(-c3cccs3)cc(-c3ccc(Cl)cc3)c2c1N,"inconclusive: 28.2 µM [activator, partial curve]"
18,CCOC(=O)CN1C(=O)/C(=C/c2cccc(Br)c2)Oc2ccccc21,"inconclusive: 39.8 µM [activator, single point]"
19,COc1ccc(-c2nnc(NC(=O)CSc3ccccc3)s2)cc1OC,inactive
20,COCCCn1c(C(=O)N2CCOCC2)cc2c(=O)n3ccccc3nc21,"inconclusive: 31.6 µM [activator, partial curve]"
21,CC(=O)Nc1ccc(NC(=O)CCc2c(C)nc3c(c(C)nn3-c3ccccc3)c2C)cc1,"inconclusive: 39.8 µM [activator, single point]"

# Source: PubChem BioAssay AID2676 (National Center for Advancing Translational Sciences (NCATS), 2010)
